# Over roughly 110,000 compounds, “z-score” has its median near -0.1; the highest 2% begin near 2. Some of the results follow. Active and inactive are the calls of the source.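 How the source made its calls: active means z-score in the third read window above 3 or below -3; inactive means the rest.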
# Molecular target: Metabotropic glutamate receptor 8 (Rattus norvegicus) (UniProt P70579)
# Experiment: rat mGluR8 modulators via GIRK flux, primary screen, cell-based, thallium flux, HTS (AID 488969)
# Conditions: HEK293 rat mGluR8, GIRK (G protein-gated inwardly rectifying potassium channel) thallium flux, FluoZin2; at 10 µM; stronger effect = higher value; submaximal glutamate (EC20) added with thallium
# Sequence of UniProt P70579 (P70579 whole entry, looked up): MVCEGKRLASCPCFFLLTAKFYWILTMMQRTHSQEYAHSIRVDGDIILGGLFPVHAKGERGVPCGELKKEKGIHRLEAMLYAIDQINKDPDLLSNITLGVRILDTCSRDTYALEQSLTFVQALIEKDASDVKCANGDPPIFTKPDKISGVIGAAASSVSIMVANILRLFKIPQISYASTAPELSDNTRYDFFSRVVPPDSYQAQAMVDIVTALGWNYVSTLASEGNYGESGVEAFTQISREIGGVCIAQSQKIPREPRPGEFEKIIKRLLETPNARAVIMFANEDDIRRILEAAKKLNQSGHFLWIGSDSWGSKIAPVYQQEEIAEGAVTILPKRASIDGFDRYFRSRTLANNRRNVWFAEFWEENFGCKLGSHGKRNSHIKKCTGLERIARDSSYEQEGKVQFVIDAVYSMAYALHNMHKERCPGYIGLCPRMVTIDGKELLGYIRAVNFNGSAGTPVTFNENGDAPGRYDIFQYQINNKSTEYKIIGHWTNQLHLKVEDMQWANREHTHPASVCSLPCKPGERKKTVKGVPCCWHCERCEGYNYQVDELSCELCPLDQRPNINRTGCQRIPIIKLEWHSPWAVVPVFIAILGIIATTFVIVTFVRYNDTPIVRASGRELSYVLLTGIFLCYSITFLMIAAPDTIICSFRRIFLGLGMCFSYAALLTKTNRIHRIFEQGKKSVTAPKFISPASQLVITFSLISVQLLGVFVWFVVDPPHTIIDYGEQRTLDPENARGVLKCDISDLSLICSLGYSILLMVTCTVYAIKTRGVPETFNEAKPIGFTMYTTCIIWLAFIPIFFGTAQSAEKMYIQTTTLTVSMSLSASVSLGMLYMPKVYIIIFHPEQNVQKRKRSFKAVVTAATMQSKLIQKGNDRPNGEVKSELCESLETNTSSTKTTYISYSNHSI
row,SMILES,z-score
1,O=C(c1ccco1)N1CCN(C(=O)c2cc3c(=O)oc4ccccc4c3s2)CC1,-1.26
2,CCCCOc1cccc(NC(=O)CSc2nncn2C)c1,0.36
3,COC(=O)c1ccccc1NC(=O)CSc1nnc(-c2cccnc2)n1C,-0.377
4,O=C(CSc1nc2ccccc2[nH]1)c1ccc2c(c1)OCO2,-0.256
5,Cc1nn(Cc2ccccc2)c(C)c1NC(=O)c1cc(-c2ccc3c(c2)OCO3)on1,1.38
6,COC(=O)C(CC(C)C)Oc1ccc2c(C)cc(=O)oc2c1 (stereo unspecified),-2.99
7,CCCc1cc(=O)[nH]c(SCC(=O)N2CCN(S(=O)(=O)c3ccccc3)CC2)n1,-0.33
8,O=C(CSc1nnc2scc(-c3ccccc3)n12)c1ccc2c(c1)OCCO2,-0.0592
9,Cc1cc(C)nc(N2CCN(c3nc(C)cc(C)n3)CC2)n1,-0.0337
10,O=C(O)CCc1nn2c3ccccc3nc2n(-c2ccccc2)c1=O,-0.197
11,CCC(=NC(C)c1ccccc1)c1c(O)n(C)c(=O)n(C)c1=O (stereo unspecified),0.266
12,O=C1C(Cl)=C(N2CCOCC2)C(=O)N1c1cccc(Cl)c1,active: 13.9
13,CCOc1ccc(-c2csc(N)c2C(=O)OC)cc1,-0.446
14,O=C(CCNS(=O)(=O)c1cccs1)Nc1ccccc1F,-0.363
15,O=C(CN(c1ccc(F)cc1)S(=O)(=O)c1ccc2c(c1)OCCO2)NCc1ccccc1,-0.0832
16,CCC(C)[C@H](NC(=O)NCc1ccccc1Cl)C(=O)O (stereo partly specified),0.754
17,COc1ccc2nc(NC(=O)CSc3nc4ccccc4o3)sc2c1,0.153
18,Cc1ccc(C(C)C)c(OCCNS(C)(=O)=O)c1,-0.0382
19,C=C(C)CN(CC)C(=O)COc1ccc(S(=O)(=O)Nc2ccc(OC)cc2)cc1,-0.206

row,SMILES,z-score
1,O=C1C=C(c2ccccc2)OC(=O)C1C(=O)c1ccccc1 (stereo unspecified),0.868
2,COc1ccc(C(NC(=O)c2ccco2)c2ccc(OC)c(OC)c2)cc1OC,1.06
3,Cc1ccc(OCC(=O)NCc2ccccc2)c([N+](=O)[O-])n1,-0.0786
4,CN1CCN(Cc2cc(Cl)c3cccnc3c2OC(=O)c2cccs2)CC1,0.273
5,CC1Cc2ccccc2N1C(=O)c1ccc(N2CCCCC2)c([N+](=O)[O-])c1 (stereo unspecified),-0.482
6,Cc1ccc(C2=Nc3ccccc3N=C(c3ccc([N+](=O)[O-])cc3)C2)c(O)c1,-0.0727
7,COc1ccc(OCC(=O)Sc2ccc(C)cc2)cc1,-0.219
8,CC1(C)C(=O)C2(CCCC2)C(=O)OC1c1ccco1 (stereo unspecified),-0.274
9,Cc1cccc(C)c1NC(=O)C(c1ccc(Cl)cc1Cl)N1CCCCC1 (stereo unspecified),-0.158
10,c1ccc(CSc2nnc([C@@H]3CCCN3)o2)cc1,0.838
11,CCOc1ccc(NS(=O)(=O)c2cc(NC(=O)c3ccc(C)cc3)ccc2Cl)cc1,-0.0084
12,CSc1nc(N2CCOCC2)c2c3c(sc2n1)CCCC3,-2.05
13,O=C(CN1CCN(c2ccccc2O)CC1)NC(=O)NCc1ccco1,-0.163
14,CCC(C(=O)Nc1cc(C(=O)Nc2cc(C)ccn2)ccc1Cl)c1ccccc1 (stereo unspecified),-0.733
15,COc1ccc(-c2nnc(NC(=O)C(C)C)s2)c(OC)c1,-0.0271
16,Cc1ccc(OCC(=O)Nc2oc(-c3ccccc3)c(-c3ccccc3)c2C#N)cc1,-0.212
17,COc1ccc(CCNC(=O)CN(c2ccc(OC)c(OC)c2)S(C)(=O)=O)cc1OC,-0.0449
18,CCOC(=O)c1cccc(NC(=O)CN(c2ccc(OC)cc2)S(=O)(=O)c2c(C)noc2C)c1,-0.74
19,CCOC(=O)Cc1nnc2c(Nc3ccccc3F)nc3nonc3n12,-0.436

row,SMILES,z-score
1,CCSc1nnc([C@@H]2CCCN2C(=O)OC(C)(C)C)o1,-0.0473
2,COc1ccc(C)cc1NC(=O)CSc1nnc(-c2ccc(OC)c(OC)c2)n1N,-0.0644
3,CCN1C(=O)c2cccc3c(S(=O)(=O)Nc4ccccn4)ccc1c23,0.133
4,CC(Sc1nc2nn(-c3ccccc3)c(=O)c-2c2n1CCCCC2)C(N)=O (stereo unspecified),0.141
5,Cc1ccc(-n2c(C)cc(C(=O)CSc3nnc4ccccn34)c2C)cc1,-0.191
6,Cc1ccc(S(=O)(=O)N2CCN(S(=O)(=O)c3ccccc3)C2)cc1,0.146
7,O=C(NCc1cccs1)c1cnn2cccnc12,0.267
8,O=C1CC(Nc2ccccc2)C(=O)N1c1ccc(N2CCOCC2)cc1 (stereo unspecified),0.235
9,Cc1cccc(NC(=O)c2ccc([N+](=O)[O-])s2)c1C,-0.0023
10,COc1ccc(CC(=O)NNC(=S)Nc2ccccc2)cc1Br,0.376
11,COc1ccc(C)cc1NC(=O)c1nc2nc(C)cc(C)n2n1,-0.166
12,COc1cccc(-c2ccc(C#N)c(OC(=O)c3ccc(Cl)cc3)n2)c1,0.282
13,CCc1ccccc1NC(=O)c1cccc(Oc2ccc([N+](=O)[O-])cc2Cl)c1,-0.0174
14,O=C(NCCCc1ccccc1)c1ccncc1,0.0631
15,CCCC(C)NS(=O)(=O)c1ccc(OC)c(C)c1 (stereo unspecified),0.0199
16,CCCc1cc(C(=O)O)c2ccccc2n1,0.391
17,COc1ccccc1C(=O)NC(C)C(c1cccs1)N1CCN(C)CC1 (stereo unspecified),0.707
18,CSc1c(CC(=O)Nc2ccccc2)n(Cc2ccccc2)c2ccccc12,-0.158

# — PubChem BioAssay AID488969 (Vanderbilt High Throughput Screening Facility, 2010)
